Assay results reported in PMC3630190.
Where two headings read alike, the source gives them in different places. These are yes or no findings as the source states them, for the method shown. Binding seen in cells or lysates may run through a third protein. Some results given as binding are weak or reduced against the parent protein; the word gives no strength. For some assays here: Sequences can lack the tags named with a protein.

Protein sequences, listed by entry. Tags and fused reporters are not part of them. Residues count along the entry.
UniProt P56726, residues 33-793: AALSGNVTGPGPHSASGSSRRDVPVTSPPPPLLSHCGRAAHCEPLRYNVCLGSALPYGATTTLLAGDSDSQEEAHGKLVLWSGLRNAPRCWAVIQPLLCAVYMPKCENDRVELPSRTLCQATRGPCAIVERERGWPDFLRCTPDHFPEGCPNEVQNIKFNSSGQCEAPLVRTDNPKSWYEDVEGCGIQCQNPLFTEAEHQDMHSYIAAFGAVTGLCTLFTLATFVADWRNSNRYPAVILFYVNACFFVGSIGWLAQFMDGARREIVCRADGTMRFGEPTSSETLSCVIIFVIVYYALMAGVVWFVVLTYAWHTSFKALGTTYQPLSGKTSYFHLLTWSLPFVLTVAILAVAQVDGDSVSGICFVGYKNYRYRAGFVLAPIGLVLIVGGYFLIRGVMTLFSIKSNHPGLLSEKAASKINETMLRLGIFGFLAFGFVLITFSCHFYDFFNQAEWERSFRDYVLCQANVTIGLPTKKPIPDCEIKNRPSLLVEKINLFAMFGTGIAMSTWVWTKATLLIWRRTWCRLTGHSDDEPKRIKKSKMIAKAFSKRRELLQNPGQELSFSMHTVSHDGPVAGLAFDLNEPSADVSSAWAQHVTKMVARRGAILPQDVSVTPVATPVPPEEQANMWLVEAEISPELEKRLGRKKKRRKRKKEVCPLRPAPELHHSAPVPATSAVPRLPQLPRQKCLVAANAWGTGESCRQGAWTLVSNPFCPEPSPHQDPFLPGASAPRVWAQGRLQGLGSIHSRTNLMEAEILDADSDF
UniProt P49798: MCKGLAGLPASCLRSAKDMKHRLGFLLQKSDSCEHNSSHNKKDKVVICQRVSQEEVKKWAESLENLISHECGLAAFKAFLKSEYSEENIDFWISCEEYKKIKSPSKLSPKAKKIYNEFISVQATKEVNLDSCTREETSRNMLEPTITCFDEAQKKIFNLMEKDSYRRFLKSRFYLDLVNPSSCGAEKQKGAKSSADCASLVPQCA

What was measured:
[1] = biological target: smoothened (Smo) (mouse (endogenous in C3H10T1/2)) (UniProt P56726); experiment: co-IP; 100 µg whole cell extract of transfected C3H10T1/2 cells (50 mM Tris/HCl pH 8.0, 120 mM NaCl, 0.5% NP-40, 1 mM EDTA); endogenous acetylated tubulin, Smo or β-tubulin immunoprecipitated overnight at 4°C with antibody and Protein A/G+ or G+ agarose; tagged RGS protein detected by α-FLAG or α-HA immunoblot
[2] = biological target: smoothened (Smo) (mouse (endogenous in C3H10T1/2)) (UniProt P56726); experiment: as above; remark: listed apart in the source

Row | binding [1] | binding [2] | Molecule
1 | no binding | – | HA-hRGS4 (human RGS4, 3X HA-tagged, N-terminus) (from UniProt P49798 1-205)
2 | – | no binding | hRGS8 (human RGS8 with a HA epitope tag) (protein, UniProt P57771 1-180) MAALLMPRRNKGMRTRLGCLSHKSDSCSDFTAILPDKPNRALKRLSTEEATRWADSFDVLLSHKYGVAAFRAFLKTEFSEENLEFWLACEEFKKTRSTAKLVSKAHRIFEEFVDVQAPREVNIDFQTREATRKNLQEPSLTCFDQAQGKVHSLMEKDSYPRFLRSKMYLDLLSQSQRRLS
3 | – | no binding | HA-hRGS2 (human RGS2, 3X HA-tagged, N-terminus) (protein, UniProt P41220 1-211) MQSAMFLAVQHDCRPMDKSAGSGHKSEEKREKMKRTLLKDWKTRLSYFLQNSSTPGKPKTGKKSKQQAFIKPSPEEAQLWSEAFDELLASKYGLAAFRAFLKSEFCEENIEFWLACEDFKKTKSPQKLSSKARKIYTDFIEKEAPKEINIDFQTKTLIAQNIQEATSGCFTTAQKRVYSLMENNSYPRFLESEFYQDLCKKPQITTEPHAT
4 | – | no binding | HA-hRGS1 (human RGS1, 3X HA-tagged, N-terminus) (protein, UniProt Q08116 1-209) MRAAAISTPKLDKMPGMFFSANPKELKGTTHSLLDDKMQKRRPKTFGMDMKAYLRSMIPHLESGMKSSKSKDVLSAAEVMQWSQSLEKLLANQTGQNVFGSFLKSEFSEENIEFWLACEDYKKTESDLLPCKAEEIYKAFVHSDAAKQINIDFRTRESTAKKIKAPTPTCFDEAQKVIYTLMEKDSYPRFLKSDIYLNLLNDLQANSLK
5 | – | binds | FL-hRGS5 (human Regulator of G-Protein Signaling 5 with an N-terminal FLAG epitope tag) (protein, UniProt O15539 1-181) MCKGLAALPHSCLERAKEIKIKLGILLQKPDSVGDLVIPYNEKPEKPAKTQKTSLDEALQWRDSLDKLLQNNYGLASFKSFLKSEFSEENLEFWIACEDYKKIKSPAKMAEKAKQIYEEFIQTEAPKEVNIDHFTKDITMKNLVEPSLSSFDMAQKRIHALMEKDSLPRFVRSEFYQELIK
6 | – | binds | HA-hRGS5 (human RGS5, 3X HA-tagged, N-terminus) (protein, UniProt O15539 1-181) MCKGLAALPHSCLERAKEIKIKLGILLQKPDSVGDLVIPYNEKPEKPAKTQKTSLDEALQWRDSLDKLLQNNYGLASFKSFLKSEFSEENLEFWIACEDYKKIKSPAKMAEKAKQIYEEFIQTEAPKEVNIDHFTKDITMKNLVEPSLSSFDMAQKRIHALMEKDSLPRFVRSEFYQELIK
7 | – | binds | hRGS5-FL (human Regulator of G-Protein Signaling 5 with a C-terminal FLAG epitope tag) (protein, UniProt O15539 1-181) MCKGLAALPHSCLERAKEIKIKLGILLQKPDSVGDLVIPYNEKPEKPAKTQKTSLDEALQWRDSLDKLLQNNYGLASFKSFLKSEFSEENLEFWIACEDYKKIKSPAKMAEKAKQIYEEFIQTEAPKEVNIDHFTKDITMKNLVEPSLSSFDMAQKRIHALMEKDSLPRFVRSEFYQELIK

Row | Molecule | binding [1] | binding [2]
8 | HA-hRGS16 (human RGS16, 3X HA-tagged, N-terminus) (protein, UniProt O15492 1-202) MCRTLAAFPTTCLERAKEFKTRLGIFLHKSELGCDTGSTGKFEWGSKHSKENRNFSEDVLGWRESFDLLLSSKNGVAAFHAFLKTEFSEENLEFWLACEEFKKIRSATKLASRAHQIFEEFICSEAPKEVNIDHETHELTRMNLQTATATCFDAAQGKTRTLMEKDSYPRFLKSPAYRDLAAQASAASATLSSCSLDEPSHT | – | no binding
